Data as given in the supplement of paper PMC11417369.
± gives the standard deviation of the averaged measurements. Some of the results follow.

The sequences below were run on PfAP2-G AP2 domain (GST-tagged) (assay: gcPBM binding intensity (ln(normalized median fluorescence intensity)); higher = stronger DNA binding).
How it was run: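 GST-tagged P. falciparum DNA-binding domains produced in E. coli were incubated for 1 h on an Agilent 4 × 180k array of primer-extended double-stranded 36-bp intergenic genomic probes with negative controls. Binding intensity is the highest Masliner-normalised natural-log median intensity across replicate spots of either probe orientation, with bound protein detected by Alexa488 anti-GST antibody at 488 nm.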

| Sequence | gcPBM binding intensity (ln) |
| --- | --- |
| AAGGTAAAATATAAGTGTACTTTTTCTTAATCTTCG [XGTACX_site514] | 11.5 ± 0.89 |
| ACAGTTTGTCTGAGTAGTACATAAATACTTGAAAGG [XGTACX_site7792] | 11.4 ± 0.79 |
| AGAAGGATATTATGAAGTACACATATTGTATATGGT [XGTACX_site7503] | 11.5 ± 0.87 |
| TAGTAAAATGGAACACGTACATATATCTATGTATAA [XGTACX_site6103] | 11.4 ± 0.81 |
| CATATAAGACAAAAGGTGCAATTTTAATGCTTTTAT [GTGCAC_site9432] | 9.77 ± 0.3 |
| AACCCTTTTGATTTTTCTTTTTTTTTTTTTTTAAAT [CACACA_negctrl_site1667] | 9.49 ± 0.37 |
| TTTTTAAAAAAAAATAGAGAGTCAAAGTATGTGGCG [CACACA_negctrl_site194] | 10.2 ± 0.14 |
| TTTCTCTTTTTTTGGGGTACAACCAATCCTATAATA [XGTACX_site297] | 11.6 ± 0.87 |
| ATACATATATATATATGTACATATATTTATATTTAT [XGTACX_site3155] | 11.1 ± 0.7 |
| TAATTCAAACGTGTATGTATATTACTCGAAGAAATA [CACACA_negctrl_site1779] | 9.96 ± 0.16 |
| TTTCAAGGATTTAATTTATGGAAACCTTCTTCATTT [GTGCAC_negctrl_site504] | 9.87 ± 0.11 |
| CCATATATAATGACATGTACTCAAAAAAAAAAAAAA [XGTACX_site685] | 11.3 ± 1 |
| TAGAAAAAAAAATACATACACACAATATATTTATTT [CACACA_site3123] | 9.66 ± 0.26 |
| AAGTTCAAAATAAATGGTACAGAAGTATATATATCA [XGTACX_site174] | 10.9 ± 0.46 |
| TAAAAAAAGAGATATTGTACACAAAAAAATTTTACT [XGTACX_site1342] | 11.4 ± 0.76 |
| AAAATCTAGGTATTTATACACACTAATATAATATAC [CACACA_site8108] | 10.2 ± 0.28 |
| TATATATTTGTGAAAATATTAAAATAAATAAATAAA [CACACA_negctrl_site295] | 9.76 ± 0.042 |
| GTACCAACAGCACTACTTCTCGCCATTTTCTTGTAG [XGTACX_negctrl_site97] | 10.5 ± 0.28 |
| GAGAGGATAGTTCACAGTACCCAGTAACTCTACGGA [XGTACX_site4876] | 10.7 ± 0.48 |
| ATAAATATAACATATTGTACCCTTAAAAAGGAACAA [XGTACX_site352] | 11.7 ± 0.96 |
| AAATGTATAATTTTTTAATACACTTATTTAAAATAA [CACACA_negctrl_site797] | 10.1 ± 0.2 |
| TCTTACACTAATAAATGTACATACAAAAAATCTATT [XGTACX_site1379] | 11.2 ± 0.76 |

| Sequence | gcPBM binding intensity (ln) |
| --- | --- |
| TACCCACTAAAATACACACACACACCCACATATATA [CACACA_site6141] | 10.3 ± 0.33 |
| AATTTGAATATTTGATGTACAAAGTTTTTTAATGTT [XGTACX_site3249] | 10.9 ± 0.63 |
| ATATGAATGATCGTACGTACTTACATATTTATAAAG [XGTACX_site8041] | 11.5 ± 0.93 |
| CAGAATACATACATTACACACAAATTTAAGTATATA [CACACA_site1781] | 9.96 ± 0.16 |
| CTCAAATAACTTTTTACACACATTATTTGAAATAAG [CACACA_site6722] | 10.1 ± 0.18 |
| ACAAATAAAAAAATTACACACATATAAAATATAGAT [CACACA_site6756] | 9.925 ± 0.021 |
| TATGAGAACAAACATTGTACAATAAAAAGTAGATAT [XGTACX_site920] | 11.2 ± 0.35 |
| AGGAAAATAATTAAAGCATGCTCATTATGAAATATA [TGCATGCA_site855] | 9.64 ± 0.24 |
| AATACATGAACTTAAAGTACTAAAAAAAAAATAATA [XGTACX_site1956] | 11 ± 0.52 |
| TCACATATTATCTTTACACACTATATATAAGTTTTA [CACACA_site2790] | 9.925 ± 0.007 |
| TCATGTTTTACAAAAACACACAAATGAATATAAACC [CACACA_site1161] | 10.2 ± 0.13 |
| TGTACATAAATCTAATTATTATATGTGTATATATAT [CACACA_negctrl_site1582] | 10.5 ± 0.28 |
| AGTACAGACATAGACACACACACACCCATAAAAAAA [CACACA_site1515] | 10.4 ± 0.25 |
| TTAAGATAGCAAATATGTACACATTTGTAAAATAAA [XGTACX_site4837] | 11.5 ± 0.94 |
| TTAAAAATAAAAAATACACACTCTAGTCCATGTAAC [CACACA_site3640] | 10.24 ± 0.057 |
| ATTTCATATAGTGTAGTGCAATTTTAAGCATCAAGG | 10.2 ± 0.26 |
| ATGTCATTATATACATGTACGCATATCTGTTTATCC [XGTACX_site3947] | 11.6 ± 1.1 |
| CCTATAATAAATAATACACACATATTGTAAATATAT [CACACA_site7496] | 10 ± 0.071 |
| TTTTTTTTTATAAGGTGTACGTAAAATGTGTAGGTC [XGTACX_site3585] | 11.6 ± 0.82 |
| AATATAATAATAAAAACACACACGTTGATTGTATTA [CACACA_site2381] | 9.74 ± 0.16 |
| TAAAAATTCAATTGCACACGCACATATTTTAATAAG [CACACA_site2014] | 10.05 ± 0.057 |
| CGTATGCAAGGAACCACACACACACCCATAAATGTA [CACACA_site749] | 10.3 ± 0.12 |

| Sequence | gcPBM binding intensity (ln) |
| --- | --- |
| AAAAAATAGACATATACACACATATGTATTTATAAT [CACACA_site5225] | 9.925 ± 0.021 |
| TTCTTATTTTATATTTCACACATTTTTACTATACTT [CACACA_site5817] | 10.08 ± 0.071 |
| GTATTCAAAAGTGAAACATGCAATAATATATATATA [TGCATGCA_site617] | 9.87 ± 0.12 |
| AAAAAAAAAAAAAATACACACGTGAATGTATTGTTT [CACACA_site4856] | 10.08 ± 0.085 |
| TCTTGACTAAATATATGTACATATATTTTAATAATA [XGTACX_site701] | 11.3 ± 0.86 |
| TAAGTGCTTTTCAACTGTACCTTCCATTTATTTATT [XGTACX_site8589] | 11 ± 0.61 |
| ACTACATAATATTTACGTACCTAAAAAATTCTTATA [XGTACX_site509] | 11.2 ± 0.74 |
| AAGGAGCCTATGAACACACACATGTACCTATATTAA [CACACA_site7838] | 11.1 ± 0.62 |
| ATACGTATTTATTTCACACACGTTAAAAAAATAAAA [CACACA_site6027] | 10.3 ± 0.4 |
| AGAATGAAATAATATACACACAAAGGAAAAATGTAA [CACACA_site3911] | 10.02 ± 0.064 |
| ATATATATATATATATGTACATAATTAATAATTAGA [XGTACX_site5672] | 11.3 ± 0.83 |
| TCTTATCCTACTTTTATTTTTACTTTTTTTTCTTAT [CACACA_negctrl_site111] | 10.1 ± 0.014 |
| TATATATATATATGTATATATGTATATCTATATTTA [CACACA_negctrl_site131] | 9.92 ± 0.55 |
| TAAATTGAGTATATTACACACATATAAATATATTAT [CACACA_site4027] | 9.98 ± 0.085 |
| TGGATTCGTATATGTAGTACTATTTATATGTGATTT [XGTACX_site1581] | 11.2 ± 0.75 |
| TCTATTAACTGATGTGCATGTTATAACCTAGAAGTA [TGCATGCA_site359] | 10.1 ± 0.2 |
| AGTTCGAATATATAAAGTACATAATTATATATTTGC [XGTACX_site2604] | 11.1 ± 0.62 |
| TAATATCATTTAGACACACACTCTTACAATATGTAA [CACACA_site5434] | 9.985 ± 0.021 |
| TTACACATATTATATATATATAAAAAAAAAAAATAT [CACACA_negctrl_site1684] | 9.82 ± 0.29 |
| AAAAATCGATACAAGCGTACAAAATAAAATAAAAAT [XGTACX_site5546] | 11.3 ± 0.92 |
| ACCAATAATATACATACACACATAAAGGTTTATATA [CACACA_site315] | 9.91 ± 0.042 |
| TAATAAATATATAATTGTACTTAAAAGAATATAAAA [XGTACX_site2928] | 11.1 ± 0.75 |

| Sequence | gcPBM binding intensity (ln) |
| --- | --- |
| AATATATACCAACATAAATATATATATATATATATA [TGCATGCA_negctrl_site334] | 10.1 ± 0.55 |
| AAGTGTATATAAAAATGTACATATTTCGATTTAAAT [XGTACX_site4161] | 11.2 ± 0.76 |
| TAATAAAACATATATACACACATTATGTATACATAT [CACACA_site1703] | 10.1 ± 0.11 |
| TTAATTTGTAAATAATGTACATATAAATGGAAAGTA [XGTACX_site2743] | 11.2 ± 0.67 |
| TATTTATTAAAACACACACACACACCGACAAAATAA [CACACA_site4293] | 10.5 ± 0.47 |
| AAATATGTCAAATATACACACATAATAACTAGAATA [CACACA_site7151] | 9.865 ± 0.064 |
| TTTTTTAATATTTATACATGCATGCCGATTACTATA [TGCATGCA_site26] | 9.99 ± 0.15 |
| AATAATTATAATAAGGGTACGTATCTCACAGGAAAA [XGTACX_site4187] | 11.2 ± 0.67 |
| TTAATATTTACAAAATGTACAGATTATTTATTGTTG [XGTACX_site1270] | 10.8 ± 0.55 |
| ACAATACAAATATATACACACATACATACATACATA [CACACA_site5699] | 10.2 ± 0.24 |
| TTACACATAAATACCATATAAATATAATGCATATCT [CACACA_negctrl_site1731] | 9.895 ± 0.021 |
| ATAAAGAAAAGGAACACACAAATATGTAAATATGTA [CACACA_site6356] | 10.06 ± 0.085 |
| CATTTGCACACGCACACACACATAAAAAGAAAAATA [CACACA_site6297] | 10.5 ± 0.46 |
| TAAAATATTATCTACGCACACATTAAAATAAAAAAA [CACACA_site3709] | 10.2 ± 0.28 |
| AAAACATTATTCCATACACACCATACTTTTTAATAA [CACACA_site7326] | 10.2 ± 0.16 |
| TATGTAGATAAATAAGCACACACCAAACATATAAAA [CACACA_site1182] | 10.31 ± 0.078 |
| ATCAGTCGAGATGACAGTACACAGTAGCCAGGAAAT [XGTACX_site4932] | 10.9 ± 0.52 |
| TATATATATTTAAAAAGTACAAAAAAAAAAAATGAA [XGTACX_site374] | 11.3 ± 0.65 |
| AAACAAATGTATATGTGTACTTATTTTTTTGTATGT [XGTACX_site7134] | 11.6 ± 1 |
| CCCTGAGCACTTTCGTGTACTAATAGTAACAATAAT [XGTACX_site1418] | 11.4 ± 0.86 |
| AATAATAAACACAATCAAATAAAATATGAAATATAA [GTGCAC_negctrl_site307] | 9.52 ± 0.24 |
| AAATGTTGAAATGATACACACATATAAATATAAATA [CACACA_site7229] | 9.75 ± 0.38 |
